Laboratory results from the RNAGym collection of RNA variant scans (doi:10.7554/elife.90254).
The source gives no read counts; variants with many changes may rest on few reads.

B1: OR4K15 (parent)
chain: GUUAACGGUCAUAGGCCAUGGAAACUAGGAGCACCAUUUCGCUGCCAGUGAAGAAAUGAACAAAGAAAAUCUGGGCCAGGCAGGCAUCAAAAGAAAUAGUCUUGCGCUCAACCAGAAAGUCUGUAAUCAUUUUAAGGGUA

Variants of: B1
Experiment: self-cleavage, relative activity (ratio to wild type); higher = more cleavage; in vitro, sequencing; the parent is a self-cleaving ribozyme

Row | Variant | self-cleavage
1 | U57C A62G U87C | 0.2
2 | A56G A78G A90G | 0.55
3 | A59U U87A A126G | 1.28
4 | A60U U122A A129G | 1.54
5 | A60G A62C A114G | 0.02
6 | A56G A116U A134G | 0.15
7 | A56U A67G A135U | 2.15
8 | A56G A114U U130C | 0.26
9 | A56G A78G U132C | 0.21
10 | A59G A67G U97C U100C A140G | 1.86
11 | A59G A64U A78G | 0.64
12 | A60U C109U U132C | 0.54
13 | U57C U87C A114U | 0.04
14 | A59G A126G U132C | 0.92
15 | A60G U102C A110G C128U | 0.11
16 | C61U A114G A126G | 0.62
17 | A60G A91C U120C U124C | 0.25
18 | A56G A95G A111G | 0.02
19 | A60G U102C U122C | 1.05
20 | A59G A92G U100C | 2.71
21 | A59G A66U A116U U122C | 0.04
22 | A56G U57C A117G | 0.86
23 | A60G G75A U102C | 0.17
24 | A56G U70C U103C U108C | 0.02

Row | Variant | self-cleavage
25 | A56G A118U G138A | 0.52
26 | A60G U108C A140G | 0.01
27 | A60G A67G A86G A89G A116G | 0.37
28 | A56G A94G U103C A140G | 1.35
29 | A60G A98G A126G A129G | 0.3
30 | A60U A68G A86G A117G | 1.21
31 | A60G A69G A82U | 0.18
32 | U57G U108C C113A A116G | 0
33 | A60G A66G A118G | 0.78
34 | A60G A64G C77U A78G | 0.29
35 | A60G A66G G106C | 0.01
36 | A59G U103C U108A A117G | 0.01
37 | U57C A60G U108C | 0.01
38 | U57G A92G A118U U122C | 0.72
39 | U57C C71A A96G | 0.15
40 | A60G A68U U102C U103C | 0.18
41 | U57A U100C U102A | 1.87
42 | A60G A86G A111G | 0.02
43 | A59G A78G U139C | 0.36
44 | U57C U127G U131C | 1
45 | A60G A78G U108C A111G U131C | 0.13
46 | A60U A63G U131C | 1.48
47 | A56G C107A G115U | 0.01
48 | A60G A94G U108C A126G | 0

Row | Variant | self-cleavage
49 | A59G A95G A125G | 0.82
50 | U57A C105U A125G | 0.02
51 | A56G U70C A86G A95G U131A | 0.81
52 | A60G A62U U102C | 2.1
53 | A60G U72C A86G | 0.08
54 | U57A A60G A63G A96G G137A | 0.76
55 | G58U A63G A118U | 0.37
56 | A56G A89G A91G | 1.51
57 | A56G A89G A90G A118G | 0.8
58 | A60C A117G U131C | 2.09
59 | A56G A94G U102C | 1.29
60 | A60G U72C U103C | 0.02
61 | C61U A90G U130C | 0.9
62 | A59G A82G A111G A129G | 0
63 | A59G U120C U122G A126G | 2
64 | U57C A94G G106A | 0.04
65 | A56G G75U A140G | 0.14
66 | A60G A86G U122G | 1.51
67 | A59U C76A U100C A117G U122C | 0.03
68 | A59G A67G A94U U131C | 1.69
69 | A60G A64G U130C | 1.07
70 | A59G A66G A116G A129G U130C | 0.2
71 | A56G U108A U130C | 0.01
72 | C61U A67G A140U | 1.8

Row | Variant | self-cleavage
73 | A59G A114G U122C A134G | 0.18
74 | A56G A69G U70C | 0.16
75 | A59G A60G A64U A91G A92G | 0.57
76 | A56G A69G A110G U132C | 0.26
77 | A56G U87C A118G U131C | 0.34
78 | A60G A63U U131C | 1.95
79 | A59G A118U A126G U127C | 0.36
80 | A56G A82C A117G | 0.15
81 | A59U U127C U130C A140U | 0.59
82 | U57C U108C A126G | 0.01
83 | U57C A59G A66G U72A A118G | 0.09
84 | A59G G104A A116G | 0
85 | A56G G80A A91U | 0.39
86 | A60G U130C U131C | 0.89
87 | U57C U70A A94G U108C A117G | 0
88 | U57C A110U U122C | 0.64
89 | U57C A66G A68U U108C A117G | 0.01
90 | A56G U57C A60G | 0.46
91 | A60G A96G A114G | 0.4
92 | A59G A60G A67G | 1.01
93 | A60G A82U U102A A116G | 0.19
94 | U57C A96G A114G | 0.29
95 | A59G A96G A110G U127A | 0.17
96 | A60G A82G A92G A95G A140U | 0.32

Row | Variant | self-cleavage
97 | A59G A62G G73A A91G A118G | 0.03
98 | A59U A96G U103C | 1.07
99 | U57C U70C U103C A110G | 0.01
100 | A59G G104C U131C | 0.02
101 | A56G U70C A91U | 0.87
102 | A56G A96G A111G | 0.04
103 | A56G U102C A111G U130C | 0.01
104 | U57C A89U A140G | 1.86
105 | A59G A86G U108G | 0.05
106 | A59G A86G A135U | 1.81
107 | A60G A82U U87C | 0.3
108 | A60G U122C U132C | 0.78
109 | A59G A78U A91C U103C A111G | 0.02
110 | A59U U103C A117G | 1.58
111 | U57C U102C A129G U130C A135G | 1.56
112 | A56G A111G A118G | 0.02
113 | A60G U87A A129G A135G | 0.92
114 | U57C A60U A89U U102A U139C | 0.75
115 | A56G A111G A114G A117G A140G | 0
116 | A59G U70C G75A A86G | 0.11
117 | A59U A78U A90G | 0.25
118 | A59U U102C U122C | 1.16
119 | U57C A96G U131C | 0.98
120 | A59G U97A A118G | 0.93

Row | Variant | self-cleavage
121 | A59G C77U U108C | 0
122 | A59G A78U U108C | 0.02
123 | A59U A62U A63U A68U U131C | 0.21
124 | A56G A116G U133C | 0.95
125 | A56G U100C G106C U108C | 0.01
126 | U57C U102C A129G | 2.21
127 | A56G G73A U122C | 0.1
128 | U57C A59C A94U | 1.13
129 | A56G A114G G138U | 0.22
130 | A60G G73A A86G | 0.11
131 | A59G U103C U120C U132C | 0.24
132 | U57C A67U A78U A95G | 0.43
133 | A59U A67G U97C | 1.28
134 | A56G A89U U100A A134G | 0.93
135 | U57C A67G A82G | 0.38
136 | G58U A91G A95G | 1.14
137 | U57C A59G A68G U102A | 0.9
138 | A56G A91G A118G | 1.17
139 | A60G U102C U103C U132A | 0.08
140 | C61U A82U A89G U100C A140G | 0.24
141 | A60C A64G A92G G137U | 2.03
142 | A56G A68U G99U U120G | 0.09
143 | A60U A86U U132C | 2.19
144 | A56G A94G A117U | 0.5

Row | Variant | self-cleavage
145 | A59G A95U U108C A140G | 0.01
146 | A56G A92G A95G A129C | 0.88
147 | A60G A92G A129C | 1.15
148 | A59U A69U U103C C112A U127C | 0
149 | A56G A78G U103C | 0
150 | A60U U122A A135U | 2.17
151 | A56G A86U U108A | 0.02
152 | A56G U102C A125G | 1.26
153 | A59G U72C A82G U122C U127A | 0.18
154 | U57C A90U G106A A129G | 0.02
155 | A60G A68G A82U | 0.13
156 | U57C A92G A94G U102C A126G | 1.45
157 | A60G G119A U130C U139C | 1.3
158 | A59G U72A A92U U102C A129G | 0.26
159 | A60U A78G A95U | 0.09
160 | A56G U100C A125G | 1.26
161 | A60G A66G A92U | 1.26
162 | A56G G75A U97C | 0.15
163 | A56G U87C U102C A118C | 1.76
164 | A59U A64G A68G U131C | 1.36
165 | A59G A67G A94G A111C | 0.01
166 | U57G A78U U100C A110U | 0.23
167 | A60G A68G C81A U102A A114U | 0.02
